The other results are listed elsewhere or left out.
Experiments:
Experiment in all cases: glycan array binding signal (z-score within array); higher = stronger binding
Conditions in all cases: glycan notation: IUPAC condensed, linker removed
[1] = biological target: Gal3S(b1-4)[Fuc(a1-3)]Glc
Outline: (§1)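 The Consortium for Functional Glycomics database supplied 3228 glycan arrays, of which those lacking an available protein sequence were dropped. The binding signal, a within-array Z-score, was averaged across arrays of the same protein sequence and across linkers. Negative scores can be read as non-binding.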

[2] = biological target: Gal3S(b1-4)[Fuc(a1-3)]Glc6S
Outline: as §1

Gal3S4S(b1-4)GlcNAc = biological target: Gal3S4S(b1-4)GlcNAc
Outline: as §1

Gal3S6S(b1-4)GlcNAc = biological target: Gal3S6S(b1-4)GlcNAc
Outline: as §1

Gal3S6S(b1-4)GlcNAc6S = biological target: Gal3S6S(b1-4)GlcNAc6S
Outline: as §1

Gal4S(b1-4)GlcNAc = biological target: Gal4S(b1-4)GlcNAc
Outline: as §1

Gal4S6S(b1-4)GlcNAc = biological target: Gal4S6S(b1-4)GlcNAc
Outline: as §1

Gal6S(b1-4)Glc = biological target: Gal6S(b1-4)Glc
Outline: as §1

Gal6S(b1-4)Glc6S = biological target: Gal6S(b1-4)Glc6S
Outline: as §1

Gal6S(b1-4)GlcNAc = biological target: Gal6S(b1-4)GlcNAc
Outline: as §1

Gal6S(b1-4)GlcNAc6S = biological target: Gal6S(b1-4)GlcNAc6S
Outline: as §1

GalNAc(a1-3)Gal = biological target: GalNAc(a1-3)Gal
Outline: as §1

GalNAc(a1-3)GalNAc = biological target: GalNAc(a1-3)GalNAc
Outline: as §1

[3] = biological target: GalNAc(a1-3)GalNAc(a1-3)Gal(a1-4)Gal(b1-4)GlcNAc
Outline: as §1

GalNAc(b1-3)Gal = biological target: GalNAc(b1-3)Gal
Outline: as §1

[4] = biological target: GalNAc(b1-3)Gal(a1-4)Gal(b1-4)GlcNAc
Outline: as §1

[5] = biological target: GalNAc(b1-3)Gal(a1-4)Gal(b1-4)GlcNAc(b1-3)Gal(b1-4)Glc
Outline: as §1

[6] = biological target: GalNAc(b1-3)Gal(a1-6)Gal(b1-4)Glc
Outline: as §1

GalNAc(b1-3)GalNAc = biological target: GalNAc(b1-3)GalNAc
Outline: as §1

GalNAc(b1-4)GlcNAc = biological target: GalNAc(b1-4)GlcNAc
Outline: as §1

[7] = biological target: GalNAc(b1-4)GlcNAc(b1-2)Man(a1-3)[GalNAc(b1-4)GlcNAc(b1-2)Man(a1-6)]Man(b1-4)GlcNAc(b1-4)GlcNAc
Outline: as §1

Glc(a1-4)Glc = biological target: Glc(a1-4)Glc
Outline: as §1

Glc(a1-6)Glc(a1-6)Glc = biological target: Glc(a1-6)Glc(a1-6)Glc
Outline: as §1

Glc(b1-4)Glc = biological target: Glc(b1-4)Glc
Outline: as §1

Glc(b1-6)Glc = biological target: Glc(b1-6)Glc
Outline: as §1

GlcA(b1-3)Gal = biological target: GlcA(b1-3)Gal
Outline: as §1

GlcA(b1-3)GlcNAc = biological target: GlcA(b1-3)GlcNAc
Outline: as §1

GlcA(b1-6)Gal = biological target: GlcA(b1-6)Gal
Outline: as §1

[8] = biological target: GlcNAc(a1-3)Gal(b1-4)GlcNAc
Outline: as §1

[9] = biological target: GlcNAc(a1-4)Gal(b1-3)GlcNAc
Outline: as §1

[10] = biological target: GlcNAc(a1-4)Gal(b1-4)GalNAc
Outline: as §1

[11] = biological target: GlcNAc(a1-4)Gal(b1-4)GlcNAc
Outline: as §1

[12] = biological target: GlcNAc(a1-4)Gal(b1-4)GlcNAc(b1-3)Gal(b1-4)Glc
Outline: as §1

[13] = biological target: GlcNAc(a1-4)Gal(b1-4)GlcNAc(b1-3)Gal(b1-4)GlcNAc
Outline: as §1

[14] = biological target: GlcNAc(a1-4)Gal(b1-4)GlcNAc(b1-3)Gal(b1-4)GlcNAc(b1-3)Gal(b1-4)GlcNAc
Outline: as §1

[15] = biological target: GlcNAc(a1-4)Gal(b1-4)GlcNAc(b1-3)Gal(b1-4)[Fuc(a1-3)]GlcNAc(b1-3)Gal(b1-4)[Fuc(a1-3)]GlcNAc
Outline: as §1

[16] = biological target: GlcNAc(a1-6)Gal(b1-4)GlcNAc
Outline: as §1

[17] = biological target: GlcNAc(b1-2)Gal(b1-3)GalNAc
Outline: as §1

[18] = biological target: GlcNAc(b1-2)Man(a1-3)[GlcNAc(b1-2)Man(a1-6)]Man(b1-4)GlcNAc(b1-4)GlcNAc
Outline: as §1

[19] = biological target: GlcNAc(b1-2)Man(a1-3)[GlcNAc(b1-2)Man(a1-6)]Man(b1-4)GlcNAc(b1-4)[Fuc(a1-6)]GlcNAc
Outline: as §1

[20] = biological target: GlcNAc(b1-2)[GlcNAc(b1-4)]Man(a1-3)[GlcNAc(b1-2)Man(a1-6)]Man(b1-4)GlcNAc(b1-4)GlcNAc
Outline: as §1

GlcNAc(b1-3)Gal = biological target: GlcNAc(b1-3)Gal
Outline: as §1

B1: Galatrox (Botrops atrox), P0DM53 (protein)
chain: NNCPQDWLPMNGLCYKIFDELKAWKDAEMFCRKYKPGCHLASIILYGESPEWAEGHSEVWLGLWDKKKDFSWEWTDR
- glycan array binding signal (z-score) [1]: -0.346
- glycan array binding signal (z-score) [2]: 0.481
- glycan array binding signal (z-score) (Gal3S4S(b1-4)GlcNAc): -0.367
- glycan array binding signal (z-score) (Gal3S6S(b1-4)GlcNAc): -0.367
- glycan array binding signal (z-score) (Gal3S6S(b1-4)GlcNAc6S): -0.357
- glycan array binding signal (z-score) (Gal4S(b1-4)GlcNAc): -0.365
- glycan array binding signal (z-score) (Gal4S6S(b1-4)GlcNAc): -0.348
- glycan array binding signal (z-score) (Gal6S(b1-4)Glc): -0.147
- glycan array binding signal (z-score) (Gal6S(b1-4)Glc6S): -0.355
- glycan array binding signal (z-score) (Gal6S(b1-4)GlcNAc): -0.33
- glycan array binding signal (z-score) (Gal6S(b1-4)GlcNAc6S): -0.32
- glycan array binding signal (z-score) (GalNAc(a1-3)Gal): -0.358
- glycan array binding signal (z-score) (GalNAc(a1-3)GalNAc): -0.356
- glycan array binding signal (z-score) [3]: -0.374
- glycan array binding signal (z-score) (GalNAc(b1-3)Gal): -0.378
- glycan array binding signal (z-score) [4]: -0.368
- glycan array binding signal (z-score) [5]: 0.613
- glycan array binding signal (z-score) [6]: -0.32
- glycan array binding signal (z-score) (GalNAc(b1-3)GalNAc): -0.358
- glycan array binding signal (z-score) (GalNAc(b1-4)GlcNAc): -0.266
- glycan array binding signal (z-score) [7]: -0.343
- glycan array binding signal (z-score) (Glc(a1-4)Glc): -0.372
- glycan array binding signal (z-score) (Glc(a1-6)Glc(a1-6)Glc): -0.362
- glycan array binding signal (z-score) (Glc(b1-4)Glc): -0.365
- glycan array binding signal (z-score) (Glc(b1-6)Glc): -0.364
- glycan array binding signal (z-score) (GlcA(b1-3)Gal): -0.363
- glycan array binding signal (z-score) (GlcA(b1-3)GlcNAc): -0.37
- glycan array binding signal (z-score) (GlcA(b1-6)Gal): -0.355
- glycan array binding signal (z-score) [8]: -0.376
- glycan array binding signal (z-score) [9]: -0.374
- glycan array binding signal (z-score) [10]: -0.367
- glycan array binding signal (z-score) [11]: -0.359
- glycan array binding signal (z-score) [12]: -0.37
- glycan array binding signal (z-score) [13]: -0.357
- glycan array binding signal (z-score) [14]: -0.355
- glycan array binding signal (z-score) [15]: 1.41
- glycan array binding signal (z-score) [16]: 2.43
- glycan array binding signal (z-score) [17]: -0.358
- glycan array binding signal (z-score) [18]: -0.365
- glycan array binding signal (z-score) [19]: -0.302
- glycan array binding signal (z-score) [20]: -0.367
- glycan array binding signal (z-score) (GlcNAc(b1-3)Gal): -0.369
